This is one part of the list. At the low end of the ranking the order means little. Measured with an extract: partners may take part in the binding.

The target of this assay is T1, HNF4alpha2 (COS-7 nuclear extract) (UniProt P41235).
T1 sequence: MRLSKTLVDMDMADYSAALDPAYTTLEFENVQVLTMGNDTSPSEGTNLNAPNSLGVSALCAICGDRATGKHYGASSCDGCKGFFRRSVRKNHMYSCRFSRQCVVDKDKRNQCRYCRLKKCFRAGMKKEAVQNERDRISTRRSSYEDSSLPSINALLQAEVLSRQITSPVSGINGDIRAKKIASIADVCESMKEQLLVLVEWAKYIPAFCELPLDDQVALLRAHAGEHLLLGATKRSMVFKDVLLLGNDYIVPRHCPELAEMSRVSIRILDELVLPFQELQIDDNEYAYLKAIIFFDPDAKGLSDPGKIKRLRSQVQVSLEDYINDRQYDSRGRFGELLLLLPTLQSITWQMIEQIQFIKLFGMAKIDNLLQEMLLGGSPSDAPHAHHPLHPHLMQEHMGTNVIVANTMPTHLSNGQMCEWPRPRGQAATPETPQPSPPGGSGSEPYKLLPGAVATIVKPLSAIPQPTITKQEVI
Nature of the assay: protein-binding microarray. The following applies: COS-7 nuclear extract on double-stranded Agilent 4x180k PBM; binding buffer, salt, pH and temperature not given; high values mean tight binding; double strand, one strand shown; sequences stand for … in …GCCTAGGGAGATTAGAGTATCGGTCGA
Regarding TCAGAGGCTCACAGAGAGGCTTCTGGCCAG, the binding signal (log2 normalized intensity) is -0.999.

For the sequence GACTTTCAACAGAGGGCCTCTAGCCCAATA, the binding signal (log2 normalized intensity) is -1.18. Then AGCGGGGTTTGAATCCCGGGAATCCTCAGC, with -1.17; and TCATTGCAATTACTCAATAACCACATGAAT, with -1.27; and GCACCGTGTGCTTTGTAGCACTTTGGACCT, with 6.42. Consider CCTTGACACATCTGATTAGAGGCTCAGGTA, for which the binding signal (log2 normalized intensity) is -0.794. With CCCTCGGGCCGGGAAACGCCCTCGGCGCGC the figure was 1.16.

With AGCTTGTCCAGAGTAGGCTTGCAAGACTGC, the binding signal (log2 normalized intensity) is -0.856. With ACCTTGTGCAGTATCCCAGGGACTTACTCA the figure was -0.811; with CGGGAGCATAGCAGCGAGGACAACCAGAGG, -1.05. Then ATGCCTTTCATCTTTGAGAAAACTCCAAAG, with -0.956; and CCCAGCGGTTCCGGGCGGCAGCACAAGGCG, with -0.917. Then ACCCAGGGGACGGAAGTTGCAGTGAGCTAA, with -1.07; and AGAGGGTATACTATTTGCTAATGTCCTTTG, with 2.41. Regarding ATACTTTGACTGAGACTGCCTCAAACAGCT, the binding signal (log2 normalized intensity) was -1.19. Then AGGGAGATGGATATATGTACAGCTGTGTAT, with 1.19. In the case of AGCAAGATGACTTTGGTCTAGACACAGACT, the binding signal (log2 normalized intensity) is -0.984.

Take CAAATTGCTGACTTTCTGTGTCTTGGCAGT: the binding signal (log2 normalized intensity) was 1.59. With CACAGAGGACGTCAGGCAGAGAGGGACTCT the figure was -1.12.

On to CATGGCAGACAGCAGTCTGAGTAGGAAAGA, for which the binding signal (log2 normalized intensity) is -0.708. With TGTTCACAGTGACGTTCTGCCCCTTATCTT the figure was 3.42. As to ACCCCCGCCCCCATTATCTCCTTAGGTACT, the binding signal (log2 normalized intensity) was found to be 3.23. As to CAGGGTAATGAGTGCTATCCCTGGAGCCTT, the binding signal (log2 normalized intensity) is -0.509.

As for AAGCAGCCCAACAGCATTAAGCTGAGGCAG, the binding signal (log2 normalized intensity) was -1.14.

Turning to GATGTTTATACAGCCTTGGAAGACACAGAT, the binding signal (log2 normalized intensity) is -0.0495. Then GTCCAGTCACAGCAAAAGTAGCCTGGTCAG, with -0.709; and CTGTGTCACGTACCGGCTAGACAAACAGCT, with -1.13. As to TCCCCCCTCCTCATTGAGAGTTTTAGGCTG, the binding signal (log2 normalized intensity) was found to be 2.03. Then AGACAACATCGAAGACTTCATGATAACACT, with -1.15; and GCACCAGCCCATTAATCAAGGCTGCCTGGC, with -1.25. For the sequence CAGGAGGACTGGATCAATGGATCCACTCAG, the binding signal (log2 normalized intensity) is -1.1. With GGGCAGCCCTGTTTAGGAGGAAATAGAGAG the figure was -0.965. Take ACCCAAGATCAAAGAGAAAGTAAGTGCACA: the binding signal (log2 normalized intensity) was determined as 0.2.

For CTTATCACTTGGTGGACATGGTTCACTGAT, the binding signal (log2 normalized intensity) was determined as 1.82.

On to AAGGTCCCCACCACAAAGGCCAGAGAAAGA, for which the binding signal (log2 normalized intensity) amounted to 1.73. Regarding CCTGGAAAAGTCTCAGGGGCCTTGCAATGA, the binding signal (log2 normalized intensity) is -1.22. As for TGTCAATGACCCTAATGGGGTACTTGAACC, the binding signal (log2 normalized intensity) worked out at 2.72.

In the case of CTCCCTGGGCAGTGCAGTATGCGCTCTGGG, the binding signal (log2 normalized intensity) was -1.21. Then TCAAGAGAATTACAAACAGCCCTGACATTC, with -1.2; and AATTCCCAAGGGTATGTTTGTGATATTGTG, with 1.76; and GGGGCATCGGTCTTTACACATCTGTTAGGA, with 1.03.

Consider TGGGCCCAGATATACAAGAAAGAAAGAATG, for which the binding signal (log2 normalized intensity) is 0.371. With GACTCCAAAGGGCTGGAGACTGAGTAACTA, the binding signal (log2 normalized intensity) was -1.16. With TCCTATCACCATATCCCTGAGAGGCCAGTT the figure was 0.3.

As for AGCAACAGCTGCAGTGAAATTCTGGCCAAC, the binding signal (log2 normalized intensity) is -1.09. Then TGGGCCACCTGAGACAGTTTATGCCAGCAA, with -1.27; and GTGTACTGGGCAGATAACAGCGAACATGAG, with -0.61. With AGTTCAGAGAGGAATCGGCAGTTTGGGCCT the figure was -0.99; with CCCAGCCAGGAGCAGAAAGGAGGCAGAGAC, -1.15.

Take TGGGCAGGGGCATCCTCATTGCCTCTGGGC: the binding signal (log2 normalized intensity) was -0.696. With TGCACAAATTTCAGATATCTGAATGTACCT the figure was 1.65; with CGGGAAAGGCCGGAGGGCGGGGCGGGGCAG, -1.09.

In the case of TGTTCATTATGTCTTATCTACCTGGCTTGT, the binding signal (log2 normalized intensity) was 1.54. With TCTGTGGTCAGGGCCTTTCCAGCAAATCCC the figure was -1.09; with GGCCCAGGGACTCAGGCACACAAAAAAAAC, -1.18. With TTGCTAGATTCTTTCTTCCTTTTGAAAAAG the figure was -0.902.

As for AAGGCAAGATCATTCCAGGAATGTTCAAGA, the binding signal (log2 normalized intensity) was -0.0989.

Turning to GTACAGCCTGTGCTAAGTTTCAAAGAGGAG, the binding signal (log2 normalized intensity) was -1.14. Turning to ACACTGGGAGGCAAATCTCTTGGTCATGGA, the binding signal (log2 normalized intensity) worked out at 0.785. With CCCTCAGCAACTGCAAGGCTGACCCGTGAA the figure was 1.4; with ATAATGCATACGCTAGCTTTCTGGTCTTTG, 1. With TTGCGGATAGATATGTTGAAGTGACTAAAT the figure was -0.668. With GATAATAGTGGCTGAAAGTACTGGCCAGAT the figure was 0.455; with ACATTCTTTCTGCATCGCAGTCGCCTGCAA, -1.13; with TTTTACAATGCAAACCTAACAGGCTGTAAG, -1.14.

For CTCTCCCAGCGGGTCATTAATTCCCAGGAA, the binding signal (log2 normalized intensity) was determined as 0.616. Then GCCTTGCCGTGCTGCGGTGGGCTCCACCCA, with -1.21. Regarding GCTTTTGTCATGACCTTCGCTCTTGATGGG, the binding signal (log2 normalized intensity) is 3.98.

As for CTCATAACTAGGGTTCCAAGACCAAGCAAG, the binding signal (log2 normalized intensity) is -0.942. With GGAAAAGATTAGATTGCTCAGAGGCACAGT the figure was -1.17; with TTCCCGCCCAAGGAGACAGGCTTTGAGCAT, -0.909; with GAGCCCTTAGGGTCAATGGGACATTGCATT, 1.76.
